# In the supplement of paper PMC8728848:
# Some of the results follow.
# Assays:
# Experiment in all cases: glycan array binding signal (z-score within array); higher = stronger binding
# Conditions in all cases: glycan notation: IUPAC condensed, linker removed
# [1] = target: Gal(b1-4)GlcNAc(b1-3)Gal(b1-4)[Fuc(a1-3)]GlcNAc(b1-3)Gal(b1-4)[Fuc(a1-3)]GlcNAc
# Method in brief: (§1)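 Glycan array data were curated from 3228 arrays in the Consortium for Functional Glycomics database and kept only where the protein sequence was available. Glycan names were converted to IUPAC-condensed notation, and columns mapping to the same glycan were averaged. The binding signal is a within-array Z-score, averaged across arrays of the same protein sequence at different concentrations or buffers and across linkers. Negative Z-scores can be read as non-binding.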
# [2] = target: Gal(b1-4)GlcNAc(b1-3)GalNAc
# Method in brief: as §1
# [3] = target: Gal(b1-4)GlcNAc(b1-3)[Fuc(a1-3)GlcNAc(b1-6)]Gal(b1-4)Glc
# Method in brief: as §1
# [4] = target: Gal(b1-4)GlcNAc(b1-3)[Gal(b1-4)GlcNAc(b1-6)]Gal(b1-4)GlcNAc
# Method in brief: as §1
# [5] = target: Gal(b1-4)GlcNAc(b1-3)[Gal(b1-4)GlcNAc(b1-6)]GalNAc
# Method in brief: as §1
# [6] = target: Gal(b1-4)GlcNAc(b1-3)[GlcNAc(b1-6)]Gal(b1-4)GlcNAc
# Method in brief: as §1
# [7] = target: Gal(b1-4)GlcNAc(b1-6)Gal(b1-4)GlcNAc
# Method in brief: as §1
# [8] = target: Gal(b1-4)GlcNAc(b1-6)Gal(b1-4)GlcNAc(b1-6)GalNAc
# Method in brief: as §1
# [9] = target: Gal(b1-4)GlcNAc(b1-6)GalNAc
# Method in brief: as §1
# [10] = target: Gal(b1-4)GlcNAc(b1-6)[Gal(b1-3)]GalNAc
# Method in brief: as §1
# [11] = target: Gal(b1-4)GlcNAc(b1-6)[Gal(b1-4)GlcNAc(b1-3)]GalNAc
# Method in brief: as §1
# [12] = target: Gal(b1-4)GlcNAc6P
# Method in brief: as §1
# [13] = target: Gal(b1-6)Gal
# Method in brief: as §1
# [14] = target: Gal3S(b1-3)GalNAc
# Method in brief: as §1
# [15] = target: Gal3S(b1-3)GlcNAc
# Method in brief: as §1
# [16] = target: Gal3S(b1-3)[Fuc(a1-4)]GlcNAc
# Method in brief: as §1
# [17] = target: Gal3S(b1-4)Glc
# Method in brief: as §1
# [18] = target: Gal3S(b1-4)Glc6S
# Method in brief: as §1
# [19] = target: Gal3S(b1-4)GlcNAc
# Method in brief: as §1
# [20] = target: Gal3S(b1-4)GlcNAc6S
# Method in brief: as §1
# [21] = target: Gal3S(b1-4)[Fuc(a1-3)]Glc6S
# Method in brief: as §1
# [22] = target: Gal3S(b1-4)[Fuc(a1-3)]GlcNAc
# Method in brief: as §1
# [23] = target: Gal3S(b1-4)[Fuc(a1-3)]GlcNAc6S
# Method in brief: as §1
# [24] = target: Gal3S4S(b1-4)GlcNAc
# Method in brief: as §1
# [25] = target: Gal3S6S(b1-4)GlcNAc
# Method in brief: as §1
# [26] = target: Gal3S6S(b1-4)GlcNAc6S
# Method in brief: as §1
# [27] = target: Gal4S(b1-4)GlcNAc
# Method in brief: as §1
# [28] = target: Gal4S6S(b1-4)GlcNAc
# Method in brief: as §1
# [29] = target: Gal6P(b1-4)GlcNAc
# Method in brief: as §1
# [30] = target: Gal6S(b1-3)GlcNAc
# Method in brief: as §1
# [31] = target: Gal6S(b1-3)GlcNAc6S
# Method in brief: as §1
# [32] = target: Gal6S(b1-4)Glc
# Method in brief: as §1
# [33] = target: Gal6S(b1-4)Glc6S
# Method in brief: as §1
# [34] = target: Gal6S(b1-4)GlcNAc
# Method in brief: as §1
# [35] = target: Gal6S(b1-4)GlcNAc6S
# Method in brief: as §1
# [36] = target: GalNAc(a1-3)Gal
# Method in brief: as §1
# [37] = target: GalNAc(a1-3)GalNAc
# Method in brief: as §1
# [38] = target: GalNAc(a1-3)GalNAc(a1-3)Gal(a1-4)Gal(b1-4)GlcNAc
# Method in brief: as §1
binder,measurement,setting,value
GSL-I (Griffonia simplicifolia) (protein) FNLPNFWSDVKDNIIFQGDANTTAGTLQLCKTNQYGNPLQYRAGRALYSDPVQLWDNKTGSVASFYTEFTFFLKITGDGPADGLAFFLAPPDSDVKDAGAYLGLFNKSTATQPSKNQVVAVEFDTWKNTDFPEPSYRHIGINVNSIVSVATKRWEDSDIFSGKIATARISYDGSAKILTVVLSYPDGADYILSHSVDLSKNLPNPIRVGISASTGANQFLTVYVLSWRFSSALQSTSVNAAMGPEIIRTVV,glycan array binding signal (z-score),[1],-0.262
same,glycan array binding signal (z-score),[2],-0.195
same,glycan array binding signal (z-score),[3],-0.051
same,glycan array binding signal (z-score),[4],-0.208
same,glycan array binding signal (z-score),[5],-0.312
same,glycan array binding signal (z-score),[6],-0.209
same,glycan array binding signal (z-score),[7],-0.238
same,glycan array binding signal (z-score),[8],-0.305
same,glycan array binding signal (z-score),[9],-0.136
same,glycan array binding signal (z-score),[10],-0.18
same,glycan array binding signal (z-score),[11],-0.133
same,glycan array binding signal (z-score),[12],-0.178
same,glycan array binding signal (z-score),[13],-0.146
same,glycan array binding signal (z-score),[14],-0.109
same,glycan array binding signal (z-score),[15],-0.206
same,glycan array binding signal (z-score),[16],-0.182
same,glycan array binding signal (z-score),[17],-0.256
same,glycan array binding signal (z-score),[18],-0.168
same,glycan array binding signal (z-score),[19],-0.215
same,glycan array binding signal (z-score),[20],-0.307
same,glycan array binding signal (z-score),[21],0.066
same,glycan array binding signal (z-score),[22],-0.22
same,glycan array binding signal (z-score),[23],-0.094
same,glycan array binding signal (z-score),[24],-0.278
same,glycan array binding signal (z-score),[25],-0.289
same,glycan array binding signal (z-score),[26],-0.314
same,glycan array binding signal (z-score),[27],-0.242
same,glycan array binding signal (z-score),[28],-0.291
same,glycan array binding signal (z-score),[29],-0.274
same,glycan array binding signal (z-score),[30],-0.39
same,glycan array binding signal (z-score),[31],-0.249
same,glycan array binding signal (z-score),[32],-0.163
same,glycan array binding signal (z-score),[33],-0.232
same,glycan array binding signal (z-score),[34],-0.195
same,glycan array binding signal (z-score),[35],-0.195
same,glycan array binding signal (z-score),[36],6.1
same,glycan array binding signal (z-score),[37],2.08
same,glycan array binding signal (z-score),[38],1.85
